Data taken from ChEMBL document CHEMBL4888484, “Replenishing the malaria drug discovery pipeline: Screening and hit evaluation of the MMV Hit Generation Library 1 (HGL1) against asexual blood stage Plasmodium falciparum ,using a nano luciferase reporter read-out” (2022).
Hit rate of the full screen: of about 150,000 compounds, about 540 (0.36%) showed an effect of 50% or more. Some of the results follow.

test system: Plasmodium falciparum; assay: Primary screen in NF54 nanoGlo assay, in single point, at 2uM, 72h; a lower Z score goes with more inhibition; assay type: functional, Erythrocyte; settings: timepoint 72 hour

Structure (SMILES)	% Inhibition	Z score
COc1ccc(NC(=O)[C@@H](NC(=O)c2cccnc2)c2ccccc2)cn1	4%	-0.47
O=C(c1ccc(O[C@H]2CCOC2)nc1)N1CCc2ccccc2C1	-13%	2.4
CCCCC(C)C(=O)NC(C)c1nnnn1C (centres undefined)	7%	-1.32
Cc1cnc(C2CC2)n1C[C@H]1CCCN(C(=O)c2ccnn2C)C1	12%	-1.51
CN1CCN(C(=O)[C@@H]2CCCN2C(N)=O)[C@@H](c2ccccc2)C1	4%	-0.81
CCOC(=O)c1ccc(NS(=O)(=O)C2CCC2)c(O)c1	-16%	3.21
COc1cccc(CNS(=O)(=O)c2ccc3c(c2)OC[C@@H](C(=O)N2CCOCC2)O3)c1	-14%	1.49
Cc1ccc(CCN(C[C@H]2CCCO2)S(N)(=O)=O)cc1	2%	-0.23
CCCCN1CCN([C@@H](C(=O)NCc2ccccn2)c2ccccc2)C(=O)C1=O	-11%	2.09
CCc1ccccc1NC(=O)N(CC(=O)N1c2ccccc2-n2cccc2[C@H]1c1ccccc1)C(C)C	-4%	0.86
COC(=O)c1cc(C)ccc1OC(=O)CN(C)S(C)(=O)=O	-13%	1.28
COc1cccc(-c2nc3ccc(C(=O)NCCc4nncn4C)cc3o2)c1	-4%	0.76
Cn1nc(C2CC2)cc1CNC(=O)C(C)(C)c1cccc(Cl)c1F	0%	0.04
Cc1ccc(C(=O)Nc2cccc3[nH]cnc23)s1	-8%	1.19
O=C(Nc1ccc(CCN2CCCC2)cc1)[C@@H]1CCCc2ccccc21	4%	-0.7
COCCn1nnnc1[C@]1(N2CCCC2)CCN(C(=O)CCCc2ccccc2)C1	-3%	0.56
O=C(CCC1CCN(Cc2ccc3c(c2)OCCO3)CC1)NCc1cccc(Cl)c1	-9%	1.08
CC[C@@H](c1nc(-c2csc(C)n2)nn1C1CCN(C)CC1)n1cccn1	3%	-0.39
COc1ccc(CN2Cc3cc(NS(=O)(=O)c4ccc(Cl)cc4)ccc3O[C@@H](C)C2=O)c(OC)c1	-7%	0.83
Cc1cccc(NC(=O)c2cc3c(ccc4ccccc43)o2)c1C	2%	-0.31
Cc1nonc1CN(C)C(=O)C[C@@H](c1cccc(O)c1)c1ccccc1Cl	-8%	0.66

Structure (SMILES)	% Inhibition	Z score
Clc1snnc1CN1CC(OCCCOc2ccccc2)C1	-8%	1.49
COc1ccc([C@@H](CC(N)=O)c2c(O)n[nH]c2Cc2ccc3c(c2)CCO3)cc1	0%	0.08
Cc1cc(=O)c(-c2noc([C@@]34CCCC[C@@H]3NCC4)n2)c2n1CCC2	-4%	0.75
CC(C)[C@H](CNC(=O)N1CC2(CCOCC2)C1)c1cccnc1	9%	-1.64
COc1ccccc1C(=O)N1CCN(Cc2sc(C)nc2C)CC1	3%	-0.39
C=CCn1c(C(=O)NCCN2CCCCC2)cc2cc(S(=O)(=O)N(C)C)ccc21	-14%	1.51
COc1ccccc1CNC(=O)[C@]1(C)Cn2c(cc3ccccc32)C(=O)N1Cc1ccccc1Cl	1%	-0.12
Cc1cccc(NC2CCN(CC(=O)NC(C3CC3)C3CC3)CC2)n1	-8%	1.09
CCCN1C(=O)c2ccccc2C(C(=O)N2CCN(C(C)=O)CC2)C1c1ccc2c(c1)OCO2 (centres undefined)	-2%	0.42
Cc1nn(-c2ncnc3[nH]cnc23)c2c1[C@H](C(C)(C)C)CC(=O)N2	1%	-0.17
c1ccc(-n2nc(CC3CC3)cc2NCc2cnc3ccccn23)cc1	-17%	2.41
CC(=O)N1CCC(C(=O)NCCn2c(C)cnc2-c2ccccc2)CC1	-11%	1.24
CC(C)c1nccc(NC[C@]2(c3ccccc3)C[C@H](O)C2)n1	8%	-1.49
COC(=O)C(C)(C)[C@H]1CCCN(C(=O)CCNC(=O)c2ccncc2)C1	-10%	1.76
CCC1CC(C(=O)N2CCN(Cc3ccccc3)CCC2C)CCO1 (centres undefined)	-15%	2.32
C=CCN1C(=O)c2ccccc2N[C@]1(C)CCc1ccccc1	4%	-0.7
CNC(=O)[C@@H]1CCCCN1Cc1cccc2nonc12	-17%	3.24
COCCOCC(=O)NCc1ccc(-c2scnc2C)cc1	-14%	1.82
CCN1C[C@@H](CNC(=O)N(C)Cc2csc(-c3ccccc3)n2)CC1=O	-16%	2.11
Cc1cc(NC(=O)CNc2ccc(-n3cccn3)c(Cl)c2)on1	-6%	1.13
C[C@H]1CCCN(C(=O)CCn2cnccc2=O)c2ccccc21	-6%	0.9

Structure (SMILES)	% Inhibition	Z score
Cc1cccc(-n2cnc3cc(C(=O)N4CCOC[C@H]4C(=O)O)ccc32)c1	2%	-0.41
CCN(C)C[C@@H]1CN(C(=O)C(=O)CCc2ccccc2)C[C@@H]1CO	10%	-1.34
C[C@H](Oc1cnc2ccccc2c1)C(=O)Nc1c[nH]c(C(N)=O)c1	-5%	0.52
Cc1nc(C(=O)NC(c2ccccc2)c2ccccc2)co1	-15%	2.65
CC1CCC(N2CC(C(=O)NCC3CCCOC3C(C)(C)C)CC2=O)CC1 (centres undefined)	-4%	0.58
CC(C)(C)OC(=O)C1(C(=O)N[C@H]2CC[C@@H](CO)CC2)CCC1	-7%	1.38
C=CCC1(CC=C)CCCCN1C(=O)C[C@H]1C(=O)N(C)C(=O)N1C	-13%	1.65
N[C@H](c1ccc(F)c(Cl)c1)C(F)(F)F	7%	-0.93
Cc1csc(CCC(=O)N2CC(C)[S+]([O-])C(C)C2)n1 (centres undefined)	-1%	0.23
Cc1cc(C)cc(N2CCC(NCc3n[nH]c(N)n3)CC2)c1	5%	-0.68
COc1cc(C#N)c(Br)c(Br)c1OC	0%	-0.03
COc1nc(CNC(=O)[C@H](C)n2cccn2)nc(N2CCOCC2)n1	-17%	2.13
CC(=O)NCCCNC(=O)NCC1(C)CCCCCC1	-13%	1.29
Cn1ccnc1C(=O)NCc1ccc(-c2ncon2)cc1	-2%	0.32
CCC(=O)Nc1ccc(-n2cnc(C(=O)NCc3ccco3)c2)nc1	39%	-5.59
CCN(CC(=O)Nc1ccc(NC(C)=O)cc1)S(=O)(=O)N(C)Cc1c(F)cccc1Cl	-2%	0.27
CCOc1nc(C(=O)N(C)c2ccc(C(F)(F)F)nn2)co1	-8%	1.58
CN(CCc1ccccn1)[C@H]1CCCN(S(=O)(=O)c2cccc3cccnc23)C1	-6%	0.92
N#Cc1ccc(NC2CCC(F)C2)nc1 (centres undefined)	3%	-0.35
Cc1csc([C@@H](C)C(=O)NCc2nc(C(N)=O)co2)n1	-9%	1.38
COc1ccc(N(CC(=O)c2cc(C)n(OCc3ccccc3)c2C)S(=O)(=O)c2ccccc2)cc1	-22%	3.62

Structure (SMILES)	% Inhibition	Z score
COC1CS(=O)(=O)CC1NC(=O)NCc1cc(Cl)sc1Cl (centres undefined)	8%	-1.41
Cc1ccsc1C(C)NC[C@H]1CCCN1S(C)(=O)=O (some centres undefined)	-13%	1.43
COc1cccn(CC(=O)N(C)C[C@H]2COc3ccccc3O2)c1=O	-15%	1.74
CCCn1c(C(=O)NCCOC)cc2cc(NS(=O)(=O)c3ccc(Cl)cc3)ccc21	-15%	1.83
N#Cc1cccc(Cn2cnc3c2c(=O)n(CC2CC2)c(=O)n3-c2ccc(Cl)cc2)c1	-8%	1.22
Cc1ccc(N(C)S(=O)(=O)c2c(-c3ccccc3)csc2C(=O)NCc2cccnc2)cc1C	-8%	0.92
Cc1ccc(Cl)cc1NC(=O)[C@@H]1CN(S(=O)(=O)c2ccccc2)c2cc(C(C)(C)C)ccc2O1	1%	-0.11
Fc1cccc2c(NCc3ccc(CN4CCCC4)cc3)ncnc12	-1%	0.09
CN(C)S(=O)(=O)c1ccc(C(=O)NCc2nccnc2-c2ccncc2)cc1	9%	-1.14
COC[C@H]1CN(C)CC12CCN(C(=O)Cc1ccc(Cl)cc1)CC2	9%	-1.07
O=C(COc1ccccc1)N1CCOC[C@H](Oc2ccc(C(F)(F)F)cn2)C1	-21%	3.33
O=C(Nc1cccc2ccccc12)c1ccc2c(c1)OCCO2	-8%	1.05
Cc1cc(C)n2ncc(-c3noc(-c4ccnn4C4CCCC4)n3)c2n1	-6%	0.65
CCN(Cc1ccccc1)C(=O)[C@H]1CCN(c2cn[nH]c(=O)c2)C1	-16%	2.24
CC(=O)c1ccc(N2CCN(/C(=N\c3ccc(C(=O)O)cc3)NC[C@H]3CCCO3)CC2)cc1	5%	-0.48
CCn1cc(-c2cc(C(=O)N3CCCN(C)C[C@@H]3C)c3ccccc3n2)cn1	-8%	1.32
COc1ccc(Cl)cc1N1CC[C@H](NC(=O)CCn2cncn2)C1	0%	-0.04
CCN1CC2(CCN(Cc3cccc(O)c3)CC2)C[C@@H](c2ccccc2)C1=O	13%	-1.74
CC(C)Cn1ccnc1NC(=O)c1cc2cccn2cn1	-17%	2.63
